# Source: paper PMC4336329 (PLoS ONE, 2015)
# The whole screen tested about 310,000 compounds, of which about 14,000 (4.5%) showed an effect of 50% or more. Effects have a minus sign here. This is one part of the list.
# Molecular target: human ether-à-go-go-related gene (hERG) potassium channel (human, UniProt Q12809)
# Assay: primary screen, population patch clamp on CHO cells stably expressing hERG
# 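Further: peak tail current of the secondary pulse compared with the same well before compound.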
# Sequence of human ether-à-go-go-related gene (hERG) potassium channel (Q12809 whole entry, looked up): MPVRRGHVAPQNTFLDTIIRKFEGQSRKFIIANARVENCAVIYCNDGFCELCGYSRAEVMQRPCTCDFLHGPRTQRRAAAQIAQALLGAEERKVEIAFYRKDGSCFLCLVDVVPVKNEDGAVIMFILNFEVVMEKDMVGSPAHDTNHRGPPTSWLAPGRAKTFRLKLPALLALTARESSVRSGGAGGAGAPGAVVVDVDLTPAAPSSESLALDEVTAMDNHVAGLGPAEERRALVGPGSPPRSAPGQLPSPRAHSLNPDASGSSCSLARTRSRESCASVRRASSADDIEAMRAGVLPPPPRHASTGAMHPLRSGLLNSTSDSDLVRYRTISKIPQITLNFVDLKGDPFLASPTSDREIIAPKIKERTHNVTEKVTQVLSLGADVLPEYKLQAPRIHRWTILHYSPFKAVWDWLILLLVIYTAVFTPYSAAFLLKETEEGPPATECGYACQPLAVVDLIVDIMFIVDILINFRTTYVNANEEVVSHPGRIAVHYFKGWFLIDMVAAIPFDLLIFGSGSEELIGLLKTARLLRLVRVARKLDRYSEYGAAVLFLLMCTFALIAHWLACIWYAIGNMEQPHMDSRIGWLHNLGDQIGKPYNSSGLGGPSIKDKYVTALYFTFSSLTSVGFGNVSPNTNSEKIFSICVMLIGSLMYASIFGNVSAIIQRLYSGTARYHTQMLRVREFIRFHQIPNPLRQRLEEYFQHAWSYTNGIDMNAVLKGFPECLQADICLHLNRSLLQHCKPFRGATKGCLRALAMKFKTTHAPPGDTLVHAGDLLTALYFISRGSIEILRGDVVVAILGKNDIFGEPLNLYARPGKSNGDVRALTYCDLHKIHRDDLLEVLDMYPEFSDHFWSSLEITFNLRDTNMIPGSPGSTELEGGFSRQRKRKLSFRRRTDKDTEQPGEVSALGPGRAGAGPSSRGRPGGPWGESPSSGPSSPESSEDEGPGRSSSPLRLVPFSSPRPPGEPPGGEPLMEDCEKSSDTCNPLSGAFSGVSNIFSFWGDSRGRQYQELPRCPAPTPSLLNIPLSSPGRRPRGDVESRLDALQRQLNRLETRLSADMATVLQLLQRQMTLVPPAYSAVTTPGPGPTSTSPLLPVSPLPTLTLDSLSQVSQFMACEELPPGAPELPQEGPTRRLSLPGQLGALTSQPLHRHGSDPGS
row,Compound,"hERG current change (%, negative = inhibition) at 10uM [%]"
1,CCCn1c(C(C)Nc2nc(-c3ccc(OC)cc3)cs2)nc2ccccc21 (stereo not drawn),6.2
2,CCc1ccc(OCC(=O)Nc2ncn[nH]2)cc1,13.1
3,C/C(=N\O)C(=O)NCc1ccccn1,-3.01
4,CN1CCN(c2ccccc2NC(=O)c2cccc(OCc3ccccc3)c2)CC1,-78.9
5,COCC(=O)Nc1ccc(S(=O)(=O)Nc2cc(C)nc(C)n2)cc1,12.2
6,CCOC(=O)NNc1cc(C(F)(F)F)ccn1,6.87
7,O=C(NCc1ccccc1)C(=O)NCC1CCCN1S(=O)(=O)c1cccs1 (stereo not drawn),-11.6
8,O=C(CN1C(=O)S/C(=C\c2cccs2)C1=O)Nc1ccc(O)cc1C(=O)O,8.88
9,O=C(NCCCN1CCOCC1)c1cccc(S(=O)(=O)Nc2ccccc2Cl)c1,7.43
10,COc1ccc(CCNC(=O)c2cc(-c3ccccc3)on2)cc1OC,14.8
11,C/C(=N\NC(=O)Cc1cccn1C)c1ccc([N+](=O)[O-])cc1,-5.82
12,COc1cccc2cc(C(=O)N3CCc4ccccc43)c(=O)oc12,12.4
13,C=CCn1c(N2CCCC2)nc2c1c(=O)[nH]c(=O)n2C,0.472
14,CC1=C(C(=O)Nc2ccc(F)cc2)C(c2ccc(C)o2)C2=C(CC(C)(C)CC2=O)N1 (stereo not drawn),-7.85
15,O=C(COc1ccc(Br)cc1)N1CCCCCC1,-22.9
16,COC(=O)c1ccc(COc2ccccc2[N+](=O)[O-])o1,10.5
17,O=C(Nc1ccccc1)c1cnc(-c2ccccc2)nc1-c1ccccc1,-9.72
18,NS(=O)(=O)c1ccc(NN=C2CCN(Cc3ccccc3)CC2)c([N+](=O)[O-])c1,-17.6
19,O=C(Nc1ccc2c(c1)OCCO2)c1ccc2ccccc2n1,13.6
20,COc1ccc(C(=O)OCC(=O)Nc2sccc2C(N)=O)cc1[N+](=O)[O-],-3.28
21,CCOC(=O)c1nc2nc(C)c(Cl)c(=O)n2[nH]1,0.341
22,Cc1ccc(N(CC(=O)NCC2CCCO2)C(=O)CNS(=O)(=O)c2ccc(Cl)cc2)cc1 (stereo not drawn),-13.7
23,Cc1ccc(C(=O)NCCSc2ccccc2)cc1S(=O)(=O)Nc1ccccc1,-15

row,Compound,"hERG current change (%, negative = inhibition) at 10uM [%]"
1,COc1ccccc1N1CCN(CC(=O)Nc2ccccc2C(=O)NC(C)c2ccccc2)CC1 (stereo not drawn),-16.6
2,COc1ccc(-c2cc(C(=O)N(C)CCc3ccc(OC)c(OC)c3)c3ccccc3n2)cc1,-29.4
3,Cc1cc(S(=O)(=O)Nc2ccc3cn[nH]c3c2)c(C)cc1Cl,-0.242
4,FC(F)(F)c1ccc2c(c1)N1CCCC1CN2 (stereo not drawn),0.773
5,O=S(=O)(NCC(c1cccnc1)N1CCN(c2ccccc2)CC1)c1cccs1 (stereo not drawn),-60.4
6,COC(=O)c1ccc(NC(=S)NC2CCCCC2)cc1,1.13
7,CCOC(=O)C1CCN(C(=O)CCc2nnc3ccc(NCCCN4CCCC4=O)nn23)CC1,12.2
8,COc1ccc(-c2cc(C(F)(F)F)n3nc(C(=O)N4CCCCC4)cc3n2)cc1,0.834
9,CCNc1nc(NCC)n2c(SCC(=O)O)nnc2n1,9.66
10,COc1ccc(Cl)cc1NC(=O)COC(=O)Cc1cccs1,-7.76
11,O=C(CSc1ccc2ccccc2n1)N1CCC(c2noc3ccc(F)cc23)CC1,-8.94
12,CCOC(=O)C(Cc1ccccc1)C(=O)Nc1ccccc1C (stereo not drawn),9.21
13,COc1cc(/C=N/NC(=S)NCCc2ccccc2)cc(OC)c1OC,8.26
14,O=C(CSC1=NCCS1)NC1CCCCC1,15.1
15,Cc1ccc(-n2c(-c3ccncc3)nnc2-c2ccco2)cc1,0.0739
16,c1ccc(C2=NNC(=NC3CC3)SC2)cc1,-1.96
17,COc1ccc(C(C)NC(=O)c2ccccc2)cc1 (stereo not drawn),-11.7
18,CCCCN1C2CCCC1CC(NC(=O)c1cccc(OC)c1)C2 (stereo not drawn),-19.3
19,CCn1c(C)cc(/C=C2\C(=O)NC(=O)N(c3ccccc3C)C2=O)c1C,-5.18
20,Cc1ccc(N2C(=O)c3ccccc3NC2c2ccccc2O)cc1 (stereo not drawn),23.7
21,Cc1csc(SCC(=O)Nc2ccccc2C)n1,13.2
22,O=C(O)c1cccc(-n2cccc2/C=C2/NC(=O)N(Cc3ccccc3F)C2=O)c1,14.1
23,COc1cc(NC(=S)NCCc2ccccc2)c(OC)cc1NC(=O)C(C)C,-11

row,Compound,"hERG current change (%, negative = inhibition) at 10uM [%]"
1,CC(C)CN(CCCNC(=O)CN1C(=O)COc2ccc(S(=O)(=O)N3CCOCC3)cc21)CC(C)C,6.18
2,Cc1cccc(NC(=O)CSc2nnnn2-c2cccnc2)c1,-6.57
3,COc1cccc(C2=N/C(=C\N(C)C)C(=O)O2)c1,7.67
4,O=C(NC1CCCC1)C1CCCN(S(=O)(=O)c2ccc(-n3cnnn3)cc2)C1 (stereo not drawn),-11.9
5,Cn1c(=O)c2c(nc(N3CCN(Cc4ccccc4)CC3)n2CC(=O)c2ccccc2)n(C)c1=O,-17.8
6,O=C(Nc1ccc(F)cc1)c1ccccc1,-7.59
7,Cc1c(-n2c(O)c(C3=c4ccccc4=NC3=O)sc2=O)c(=O)n(-c2ccccc2)n1C,-32.7
8,CCN1CCN(C(c2ccc(C(F)(F)F)cc2)c2ccc3cccnc3c2O)CC1 (stereo not drawn),-25.3
9,Cc1cc(C(=O)Nc2cccc3ccccc23)c(C)o1,4.69
10,CNC(=S)N/N=C1\CC(c2ccccc2)Oc2ccccc21 (stereo not drawn),7.45
11,Cc1ccc(S(=O)(=O)NCC(=O)OCC(=O)Nc2cccc(S(=O)(=O)NC3=NCCCCC3)c2)cc1,20.5
12,COCCNC(=O)c1ccc(C2SCC(=O)N2Cc2ccco2)cc1 (stereo not drawn),11.2
13,Cc1oc(-c2ccc(Cl)cc2)cc1C(=O)NC1CCN(Cc2ccccc2)CC1,1.09
14,CCNc1nc(NCC)nc(N(CC)C(N)=S)n1,-11.3
15,Cc1ccc(CN(C(=O)COc2ccc(C)c(C)c2)C2CCS(=O)(=O)C2)o1 (stereo not drawn),-53.6
16,CC(=O)c1c(C(C)=O)c(C)n(-c2nc(-c3cccs3)c(C)s2)c1C,18.7
17,Nc1nccc(-c2cc(-c3ccc(Cl)cc3Cl)no2)n1,12.9
18,COc1cc(CC(=O)Nc2ccc3nc(C)sc3c2)cc(OC)c1OC,2.73
19,Cc1noc(C)c1C(=O)Nc1ccc(Cl)cc1C(F)(F)F,-0.387
20,O=C(CN1CCOCC1)N/N=C/C(Br)=C\c1ccccc1,5.63
21,COc1cc(OC)cc(OCC(O)Cn2cnc3cc(C)c(C)cc32)c1 (stereo not drawn),-12
22,CC(=O)N1CCN(C(=S)NC(=O)C23CC4CC(CC(C4)C2)C3)CC1,40.4
23,C=CCNC(=O)C1CCC(CNc2nc(=S)[nH]c3ccccc23)CC1 (stereo not drawn),16.7

row,Compound,"hERG current change (%, negative = inhibition) at 10uM [%]"
1,COc1cc(C(=O)/C=C/Nc2ccc(NC(C)=O)cc2)cc(OC)c1OC,-26.3
2,Cc1ccc(NC(=O)CSCC(=O)Nc2nnc(C3CC3)s2)cc1,6.1
3,Cc1cc2[nH]ncc2cc1NC(N)=S,26.1
4,O=C(CSc1nc(-c2ccccc2)cc(=O)[nH]1)Nc1ccccc1,18
5,COc1ccccc1CN1CC(C(=O)NCc2cc(F)cc(C(F)(F)F)c2)CCC1=O (stereo not drawn),-20.1
6,Nc1nonc1-n1nnc(C(=O)N/N=C/c2ccoc2)c1CSc1ccc(Cl)cc1,13.3
7,CSc1ncccc1C(=O)Nc1nc2ccc(F)cc2s1,42.3
8,Nc1nc(Nc2ccccc2)nc(N2CCCC2)c1[N+](=O)[O-],-34.5
9,COc1cccc(C(=O)Nc2ccc(F)c(F)c2F)c1,-10
10,CC(NS(=O)(=O)c1ccccc1)C1CC2CCC1C2 (stereo not drawn),-26.6
11,N#CC1(NC(=O)COC(=O)C2=COCCO2)CCCCC1,8.63
12,C=CCn1c(-c2ccccc2)nc2nc3ccccc3nc21,-3.49
13,c1ccc(-c2ncc(-c3ccn[nH]3)s2)cc1,8.93
14,CC1(C)CC(=O)C(C=Nc2cc(C(=O)c3ccccc3)ccc2N)=C(O)C1,-36
15,COCCCn1c(=O)c2ccccc2n(CC(=O)N2CCCc3ccccc32)c1=O,-22.8
16,O=C1NC(=O)N(CCC2=CCCCC2)C(=O)/C1=C/c1ccc(O)cc1,-3.45
17,O=C(N/C=N/OCc1ccc(Cl)cc1Cl)NOCc1c(Cl)cccc1Cl,0.299
18,CCc1nnc(NC(=O)CCC(=O)NCCc2ccccc2)s1,19
19,CCN(C(=O)COC(=O)c1nn(-c2ccccc2)c(=O)c2ccccc12)C1CCS(=O)(=O)C1 (stereo not drawn),-30.2
20,COc1cccc(OC)c1C(=O)Nc1nc(COc2ccccc2)cs1,18.4
21,Cc1cc(-c2ccccc2)nc(N/N=C/c2ccccc2F)n1,0.271
